The structures appear in SMILES notation. The whole screen tested about 150,000 compounds, of which about 540 (0.36%) showed an effect of 50% or more. Some of the results follow.

The record followed here is ChEMBL document CHEMBL4888484, “Replenishing the malaria drug discovery pipeline: Screening and hit evaluation of the MMV Hit Generation Library 1 (HGL1) against asexual blood stage Plasmodium falciparum ,using a nano luciferase reporter read-out” (2022).

The test system of the test is Plasmodium falciparum. The test can be described thus: Primary screen in NF54 nanoGlo assay, in single point, at 2uM, 72h; a lower Z score goes with more inhibition. Type of test: functional, Erythrocyte. The following applies: timepoint 72 hour.
What is called % Inhibition is the change of the read-out against control, counted positive when it falls. In the case of `O=C(c1[nH]nc2c1CCC2)N1CC(n2cccn2)C1`, the “% Inhibition” value is -4% and the Z score is listed as 0.89.
Taken in the same sequence, the figures for `CCCN(CCN1CCCC1)C(=O)c1ccnc(N2CCO[C@@H](C)C2)c1` were -5% and 0.74.
Regarding `CC1(C)CCN(CCNC(=O)[C@H]2CC[C@H](Nc3cnccn3)CC2)C1`, the “% Inhibition” value is given as -6% and the Z score is given as 0.88.
The matching figures for `CCOc1ccc(S(=O)(=O)Nc2ccc(OC)c(N3CCCC3=O)c2)cc1`: -7% and 1.13.
Regarding `Cc1cc(C(=O)N2CCC(Oc3ncccc3F)CC2)c2nccc(C)c2c1`, the “% Inhibition” value is -3% and the Z score amounted to 0.34.
The matching figures for `CN1CCN(Cc2ccc(-c3cccc4cccnc34)nc2)CC1`: -12% and 2.1.
The matching figures for `O=C(CS(=O)(=O)C1CCCC1)N(CCO)CC1CC1`: -6% and 0.59.
The matching figures for `O=S(=O)(NC[C@H]1COC2(CCCC2)O1)c1ccc(Cl)s1`: -14% and 2.71.
Consider `CCc1cnc(C)nc1N1C[C@H]2CC=CC[C@H]2C1`, for which the “% Inhibition” value was -3% and the Z score was 0.41.
As to `O=C(CN1N=C(C(=O)Nc2ccccc2)CCC1=O)Nc1ccc(OC(F)(F)F)cc1`, the “% Inhibition” value was found to be 38% and the Z score was -4.94.
In the case of `C1=C(CCNCc2ccccc2)c2ccccc2C1`, the “% Inhibition” value is -10% and the Z score was 1.25.
The matching figures for `O=C(NCc1nc(-c2cccs2)n[nH]1)c1cc[nH]n1`: -13% and 2.57.
The matching figures for `NCc1ccnc(OC2CCC3(CC2)OCCO3)c1`: -4% and 0.58.
For the compound `CC(C)=CCCN1CCC(c2cc(N3CCOCC3)nc(C)n2)CC1`, the “% Inhibition” value was found to be 1% and the Z score is given as -0.12.
Taken in the same sequence, the figures for `CN1CCC[C@H](C(=O)N[C@H]2CC[C@H](Oc3ncccn3)CC2)C1` were 13% and -1.46.
The matching figures for `O=C(c1ccccc1F)N1C[C@@H]2CN(C3CCCC3)C[C@]2(C(=O)O)C1`: -2% and 0.3.
The matching figures for `COc1ccc(Oc2nccc(-c3ccc(F)cc3)c2C#N)cc1`: 38% and -1.49.
For the compound `COc1ccc(C(=O)NCc2ccc3c(c2)CCN3C(=O)c2ccncc2)cc1OC`, the “% Inhibition” value is recorded as -15% and the Z score came out at 1.35.
Taken in the same sequence, the figures for `CCn1c(CC2CCNCC2)nn(Cc2ccc(C)c(F)c2F)c1=O` were -3% and 0.41.
The matching figures for `CC(=O)N1CCc2ccc(OCc3nc(C(=O)NC4CC4)cs3)cc2[C@@H]1c1cccc(F)c1`: -23% and 3.04.
Taken in the same sequence, the figures for `COC(=O)c1ccc(N2CCN(C(=O)CCn3cnnc3)CC2)cc1` were -11% and 1.11.
Consider `O=S(=O)(Cc1ccc(OC(F)(F)F)cc1)Nc1cnc2c(c1)COCC2`, for which the “% Inhibition” value is -11% and the Z score is given as 1.24.
The matching figures for `CC1(C)CO[C@H](c2cccc(F)c2)CN1S(=O)(=O)N1CCCCCC1`: 14% and -1.77.
Turning to `O=S(=O)(Cc1ccccc1)N1CC[C@H](Oc2ncc(Br)cn2)C1`, the “% Inhibition” value is given as -5% and the Z score is given as 0.81.
For the compound `O=C(c1ccc(NC2CCCC2)nn1)N1CCc2ccccc21`, the “% Inhibition” value was determined as 1% and the Z score is listed as -0.16.
Taken in the same sequence, the figures for `COCc1ncc(C)n1CCNC(=O)c1ccncc1` were 2% and -0.25.
For `CCCn1c(=O)c2sc(N3CCCCC3)nc2n(CC(=O)Nc2ccc(C(F)(F)F)cc2)c1=O`, the “% Inhibition” value was -25% and the Z score came to 2.2.
The matching figures for `O=C(Nc1ccccc1Cc1ccccc1)N1C[C@H]2CC[C@@H](C1)[C@H]2O`: -6% and 0.85.
Taken in the same sequence, the figures for `Cc1ncc(CN(C)Cn2nc3ccccn3c2=O)s1` were 27% and -3.09.
The matching figures for `CN(Cc1cc(C(N)=O)cs1)[C@H]1CCCN(Cc2ccccc2)C1`: -2% and 0.49.
As for `CCOc1ccc(CC(=O)N2CC(=O)N(Cc3ccccc3)C3(CCCCC3)C2)cc1`, the “% Inhibition” value is on record as -8% and the Z score was found to be 1.16.
Taken in the same sequence, the figures for `CC1(O)CC(C(=O)N2CCC(F)(F)C2)C1` (configuration not stated) were -12% and 1.67.
The matching figures for `O=C(NC1CCn2ccnc21)N1CCC[C@H]1COc1ccc(F)cc1` (some centres not stated): -10% and 1.96.
As for `CCCc1nc(N2CCN(C(=O)c3ccc(Cl)cc3)CC2)c2c(-c3cccc(C(F)(F)F)c3)noc2n1`, the “% Inhibition” value is -13% and the Z score was 1.24.
Taken in the same sequence, the figures for `CCC1CN(C(=O)C(C)C)CCC1NCC=Cc1ccccc1` (configuration not stated) were -10% and 1.31.
For the compound `CC(NC1CC(C)(C)CCc2ccccc21)c1nnnn1C` (configuration not stated), the “% Inhibition” value is reported as -7% and the Z score is 1.08.
Take `COc1ccc([C@@H](C)C(=O)N(C)c2ccc(Br)cn2)cc1`: the “% Inhibition” value was -11% and the Z score is 1.45.
The matching figures for `c1ccc2c(c1)OCCN2Cc1cnc2ncccn12`: -14% and 1.44.
The matching figures for `COc1ccc(CNC(=O)c2nc(-c3ccc4c(c3)OCO4)no2)cc1OC`: -7% and 0.95.
The matching figures for `CC(C)Cc1ccc(S(=O)(=O)N2C[C@@H](F)C[C@H]2C(=O)N2CCc3ccccc32)cc1`: 4% and -0.51.
Regarding `CC(C)c1nnnn1CC(=O)N[C@](C)(c1ccccc1)C(F)(F)F`, the “% Inhibition” value was -6% and the Z score is given as 1.08.
Taken in the same sequence, the figures for `COc1c(F)c(F)c(C(=O)O)c(N(C)c2ccccc2)c1F` were -1% and 0.24.
Taken in the same sequence, the figures for `Cc1nsc(NC(=O)[C@@H]2CCCN2c2ncnc3sccc23)c1C#N` were 1% and -0.21.
For `Nc1nc(CNC(=O)C2(N3CCOCC3)CCCCC2)n[nH]1`, the “% Inhibition” value was 17% and the Z score is -2.45.
The matching figures for `Brc1ccccc1CNCc1ccc2nccnc2c1`: -6% and 0.79.
Consider `Clc1ccc(OCc2cccs2)c(CNCc2cccnc2)c1`, for which the “% Inhibition” value is -8% and the Z score was 1.12.
The matching figures for `Cc1cc(=O)[nH]c(NCCNC(=O)c2cnc(C(C)(C)C)nc2O)n1`: -14% and 2.84.
Taken in the same sequence, the figures for `CC(C)NC(=O)[C@H](C)ONC(=O)C1CCCC1` were -19% and 2.65.
Take `CC(C)COc1cncc(N2CCN(C3CC3)C(=O)C2)n1`: the “% Inhibition” value is reported as -5% and the Z score is listed as 0.86.
Taken in the same sequence, the figures for `CC12CN(C(=O)NC3CCCCC3)C3(C(=O)OCc4ccccc4)CC1CCC23C` (configuration not stated) were 1% and -0.1.
The matching figures for `Cn1c(=O)c2c(c(-c3ccccc3)cn2C)n(CC(=O)Nc2cc(Cl)cc(Cl)c2)c1=O`: 46% and -6.18.
On to `CC(C)(C)c1csc(C=Cc2csc(-c3ccccn3)n2)n1`, for which the “% Inhibition” value is 3% and the Z score is listed as -0.38.
As for `CCCCN1CCN(C(=O)c2nc(-c3ccnc(N4CCCC4)c3)no2)CC1`, the “% Inhibition” value is reported as -12% and the Z score came out at 2.12.
Taken in the same sequence, the figures for `O=C1[C@@H](N2CCOCC2)CCCN1Cc1ccccc1C(F)(F)F` were 0% and -0.05.
On to `Cc1cc(C(=O)N2CCC(CN3CCCCC3=O)CC2)[nH]n1`, for which the “% Inhibition” value turned out to be 17% and the Z score is listed as -2.2.
The matching figures for `O=C(NCC1CCCC1)NCC1CCCC1O` (configuration not stated): -3% and 0.49.
The matching figures for `CCn1cc(CN2CCC3(CCCC3)C2)cc1C#N`: -11% and 1.04.
Taken in the same sequence, the figures for `COC[C@@H]1CN(Cc2ccc3cc[nH]c3c2)C[C@H]1c1nc(C)no1` were -12% and 1.92.
Regarding `O=C(NCc1ccncc1OCC(F)(F)F)N1CCC(CO)CC1`, the “% Inhibition” value is -6% and the Z score worked out at 0.99.
As to `C[C@@H]1OCCO[C@@H]1C(=O)Nc1ccn(-c2ccc(Cl)cc2)n1`, the “% Inhibition” value is given as -11% and the Z score is given as 1.74.
The matching figures for `Cc1ccc(F)cc1NC(=O)c1coc(C2CCOCC2)n1`: 22% and -2.58.
As for `COc1cc(C(=O)NCC[C@H](C)N2CCN(C)CC2)ccn1`, the “% Inhibition” value is -10% and the Z score was 1.7.
The matching figures for `CCCCC(=O)N1C[C@H](C)OCC1(C)C`: -11% and 1.47.
The matching figures for `CO[C@@H]1CN(Cc2c3c(nn2C)CCCC3)CCO1`: -4% and 0.58.
The matching figures for `COc1cccc(Cn2ccc(-c3cccc(-c4nccnc4C)c3)n2)c1`: 13% and -1.75.
With `C[C@@H](c1ccncc1)N(C)Cc1cncs1`, the “% Inhibition” value was -2% and the Z score is 0.25.
The matching figures for `CC(C)C(NC(=O)N(C)Cc1ncon1)C(C)C`: -12% and 1.63.
As for `CC(C)(C)OC(=O)N1CCC[C@H](Oc2ccncn2)C1`, the “% Inhibition” value is listed as 7% and the Z score is reported as -0.91.
Taken in the same sequence, the figures for `O=C(Cc1ccsc1)NCc1cncc(-c2cccs2)c1` were -8% and 1.66.
The matching figures for `CC(C)[C@H](CN(Cc1ccc(Cl)c(Cl)c1)S(=O)(=O)N(C)CCC#N)N(C)C`: 1% and -0.15.
Taken in the same sequence, the figures for `Cn1cc(-c2nc([C@@H]3CCCCCN3C(=O)c3ccccn3)no2)cn1` were -3% and 0.37.
Turning to `CCN1C(=O)CCc2cc(NCc3ccnn3CC)ccc21`, the “% Inhibition” value worked out at 1% and the Z score is reported as -0.16.
Taken in the same sequence, the figures for `CCOCC1CCN(C(=O)C2CCCCN2C(=O)c2ccco2)C1` (configuration not stated) were -8% and 1.41.
Taken in the same sequence, the figures for `Cn1ccc(NC(=O)Nc2ccc(OCCN3CCCCC3)cc2)n1` were -2% and 0.23.
The matching figures for `O=C1c2ccccc2[C@H](O)N1Cc1c[nH]c2ccccc12`: 5% and -0.8.
In the case of `Cn1cc(S(=O)(=O)Oc2cccc(F)c2C#N)cn1`, the “% Inhibition” value is listed as 10% and the Z score is -1.05.
The matching figures for `CCN1C[C@@H](NC(=O)N2Cc3ccc(Cl)cc3C2)CC1=O`: -8% and 1.41.
Taken in the same sequence, the figures for `CN(C(=O)NCCC(=O)NC1CCCC1)c1ccccn1` were -2% and 0.28.
Turning to `CC1CC(C)CN(CCN(CCC(=O)N2CCNCC2)S(=O)(=O)c2ccc(F)c(F)c2)C1` (configuration not stated), the “% Inhibition” value came to 6% and the Z score is on record as -0.98.
Taken in the same sequence, the figures for `O=C1Nc2cc(C(=O)N3CCN(C(=O)c4ccco4)CC3)ccc2N2CCCC[C@@H]12` were 5% and -0.64.
Taken in the same sequence, the figures for `CC(C)(C)c1nnc(CN2CC[C@H](c3ccccc3)C2)o1` were -13% and 1.85.
For `COCc1ccc(C(=O)NCC[C@H]2CCOC2)s1`, the “% Inhibition” value is on record as -5% and the Z score is reported as 0.97.
Taken in the same sequence, the figures for `Cc1ccsc1CN(Cc1ccc(C#CCO)s1)CC(C)C` were 7% and -0.99.
Taken in the same sequence, the figures for `Cc1cccc2c(=O)n(C3CCN(S(=O)(=O)c4cc(F)cc(F)c4)CC3)cnc12` were 2% and -0.17.
The matching figures for `O=C(c1ccco1)N1CCC(Cc2nncn2Cc2ccccc2)CC1`: 1% and -0.1.
On to `CCn1c2c(c(=O)n3ncc(C(=O)Nc4ccc(C)c(C)c4)c13)CNCC2`, for which the “% Inhibition” value is given as -16% and the Z score came out at 2.01.
